From PubChem BioAssay AID1466 (National Center for Advancing Translational Sciences (NCATS), 2008)
In all, about 200,000 compounds went through this assay and about 10 (0.005%) were called active. This list was built around the results that the source calls inconclusive (neither active nor inactive); the mix of calls is not that of the screen. Calls follow the shape of the dose curve; as a rule, active = well fitted inhibition curve with a large enough effect; inconclusive = small, poorly fitted or top-dose-only effect, or effect the other way, or another doubt; inactive = no such curve, though single readings can be large or run the other way. Where the call is inconclusive, the potency comes from a doubtful curve fit.

target: Lysosomal alpha-glucosidase (Homo sapiens) (UniProt P10253); test: qHTS Assay for Inhibitors of Human alpha-Glucosidase as a Potential Chaperone Treatment of Pompe Disease; details: purified human GAA, 4-MU-alpha-glucoside fluorescence; activity change, negative = inhibition: at 76.9 µM (top of the series) unless noted;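 as to activity change, negative = inhibition: plate controls were uninhibited enzyme wells for no effect and no-enzyme background for full effect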
Outline: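 qHTS format, compound range up to 77 uM. Human lysosomal enzyme at 4 nM, 400 uM 4-MU glucoside substrate, pH 5.0, 20 min room temperature; fluorescence after alkaline stop gives activity normalized to controls.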
Potency is read from the fitted curve at half-maximal effect; tags tell the direction and shape of the fitted curve.

Potency, inconclusive:
COc1ccc(-n2cnc3cc(NCc4ccccn4)ccc32)cc1 50.1 µM [inhibitor, single point], CCOC(=O)CC1C(=O)NCCN1C(=O)c1cc2c(=O)n3ccccc3nc2s1 (stereo not given) 35.5 µM [activator, partial curve], CCOC(=O)c1cnn(-c2ccc(Cl)cc2)c1C1CCN(C(=O)OC(C)(C)C)CC1 7.08 µM [inhibitor, full curve, poor fit], COc1ccc2c(c1)c(CC(=O)Nc1ccc(C(C)=O)cc1)c(C)n2C(=O)c1ccc(Cl)cc1 44.7 µM [inhibitor, single point], N#CC(C(=O)NC1CCCCC1)c1nc2ccccc2nc1N1CCOCC1 (stereo not given) 12.6 µM [inhibitor, single point], COc1ccc(NS(=O)(=O)c2ccc(/C=C/C(=O)O)cc2)cc1S(=O)(=O)N1CCOCC1 39.8 µM [inhibitor, single point], CCN(CC)c1ccc(C(=O)N/N=C(\C)c2ccc(O)cc2)cc1 50.1 µM [inhibitor, single point], COc1ccc(Br)cc1C(=O)Nc1cccc(NC(=O)c2ccco2)c1 56.2 µM [inhibitor, single point], O=C(Nc1cc(Cl)cc(Cl)c1)c1coc(=O)c(Br)c1 2.24 µM [activator, partial curve], Cn1c(=O)c2c(ncn2CC(=O)NCc2cccnc2)n(C)c1=O 56.2 µM [inhibitor, single point], O=C1CC(=O)N(CCc2ccccc2)C(=O)N1CCc1ccccc1 56.2 µM [inhibitor, single point], COc1nc(Nc2ccc(OC)c(Cl)c2)nc(OC)n1 50.1 µM [inhibitor, single point], CCOc1ccc(/C=C2/C(=O)N(c3ccc(OC)cc3)C(=S)N2CC(=O)OC)cc1OCC 39.8 µM [inhibitor, single point], O=C(Nc1ccc(S(=O)(=O)NCc2ccccc2)cc1)c1ccccc1[N+](=O)[O-] 39.8 µM [inhibitor, partial curve, poor fit], Cc1cc2nc(N)sc2cc1[N+](=O)[O-] 0.178 µM [activator, full curve, poor fit], Cc1[nH]c(=O)[nH]c1C(=O)CCCCC(=O)O 0.316 µM [inhibitor, full curve, poor fit], COC(=O)C1C(c2ccc(Br)cc2)Nc2nnc(C(F)(F)F)n2C1(C)O (stereo not given) 15.8 µM [inhibitor, partial curve, poor fit], COc1ccc(NC(=O)O/N=C/c2c(C)nn(C(C)(C)C)c2C)cc1 50.1 µM [inhibitor, single point], O=C(c1ccccc1)c1ccc(O)cc1O 1.41 µM [inhibitor, single point], O=C(N/N=C/c1ccncc1)c1ccc2c(c1)OCO2 50.1 µM [inhibitor, single point], C=CCn1c(=N)c(C(=O)NCCCOC)cc2c(=O)n3cc(C)ccc3nc21 50.1 µM [activator, single point], COc1ccc(/C=N/NC(=O)Nc2cccc3nsnc23)c(OC)c1 39.8 µM [activator, single point], CCOc1cc(/C=C2\SC(=S)N(Nc3ccccc3)C2=O)ccc1O 10 µM [inhibitor, full curve], Cc1ccc(-n2nc3ccc(N)cc3n2)cc1 39.8 µM [activator, single point], Cc1nnc(SCC(=O)Nc2nccs2)[nH]c1=O 3.55 µM [activator, partial curve], N#C/C(C(=O)Oc1ccccc1)=C1\C=Cc2ccccc2N1 44.7 µM [inhibitor, single point], Cn1nc(CC(=O)Nc2cccnc2N2CCOCC2)c2ccccc2c1=O 28.2 µM [inhibitor, partial curve], CCOC(=O)c1c(N)n(CCOC(=O)c2cccs2)c2nc3ccccc3nc12 31.6 µM [activator, partial curve], Cc1ccc(S(=O)(=O)N2CCC(=O)N(CCOCc3ccc(Cl)cc3)CC2)cc1 17.8 µM [inhibitor, partial curve], N#C/C(=C\c1ccc(Sc2ccc(Cl)cc2)o1)c1nc2ccccc2[nH]1 50.1 µM [inhibitor, single point], Cc1ccc(CN(Cc2cc3cc4c(cc3[nH]c2=O)OCCO4)Cc2nnnn2Cc2ccco2)cc1 20 µM [activator, partial curve, poor fit], COc1ccc2nc(N3C(=O)CC(Cc4cc(C)cc(C)c4)C3=O)sc2c1 (stereo not given) 0.178 µM [inhibitor, full curve, poor fit], CCOC(=O)c1ccc(NC(=O)c2cccc(S(=O)(=O)N3CCOCC3)c2)cc1 50.1 µM [inhibitor, single point], O=C(O)CSc1nc(C(F)(F)F)cc(=O)n1-c1ccccc1 1 µM [inhibitor, partial curve], Cc1cc(=O)[nH]c2cc(O)ccc12 35.5 µM [activator, partial curve], O=C(NCCc1ccccc1)C(=S)N1CCCCC1 50.1 µM [inhibitor, single point], OCCN(CCO)CC(O)COc1ccc(C23CC4CC(CC(C4)C2)C3)cc1 (stereo not given) 3.98 µM [inhibitor, single point], COC(=O)c1c(NC(=O)CC2SC(N)=NC2=O)sc2c1CCC(C(C)(C)C)C2 (stereo not given) 22.4 µM [inhibitor, partial curve], Cc1nnc(Nc2ccc(C(=O)O)cc2)[nH]c1=O 12.6 µM [inhibitor, partial curve, poor fit], CCn1c(O)c(N=NC(=O)c2ccc(CSc3nncn3C)cc2)c2ccccc21 28.2 µM [inhibitor, single point], Cn1c(COc2ccccc2)nnc1SCC(=O)NCc1ccccc1 5.01 µM [inhibitor, single point], Cc1ccccc1N(CC(=O)N/N=C/c1cc(C)n(-c2ccccc2C)c1C)S(C)(=O)=O 20 µM [inhibitor, partial curve], CCOc1cc(CNCCN(C)C)c(Cl)cc1OCC(=O)NCCc1ccccc1 56.2 µM [inhibitor, single point]

Potency, inactive:
COc1ccc(C(=O)Nc2cc(OC)c(NC(=O)c3ccco3)cc2OC)cc1, NS(=O)(=O)c1ccc(N=Nc2c[nH]c(=O)c(O)c2)cc1, COC(=O)c1ccc(CN2CCN(CCCc3ccccc3)C(CCO)C2)cc1 (stereo not given), O=C(Cc1ccccc1)NNc1ccc2ccccc2c1, COc1cc(/C=N/Nc2nncn2/N=C/c2ccc(O)c(OC)c2)ccc1O, Cc1ccc(N2C(=O)C3Sc4[nH]c(=O)sc4C(c4ccccc4)C3C2=O)cc1 (stereo not given)

Activity change, negative = inhibition, inconclusive:
CSc1ccc(/C=N/NC(=O)c2sccc2C)cc1 17.6% [activator], C=CCn1c(=N)n(CC(=O)c2cccc([N+](=O)[O-])c2)c2ccccc21 13.1% [activator], CC(=O)c1cccc(N2C(=O)C3C4CCC(C4=C(C)C)C3C2=O)c1 (stereo not given) 17.6% [activator], S=C(NCC1CCCO1)N1CCN(c2nc(-c3ccc(Cl)cc3)cs2)CC1 (stereo not given) 9.65% [activator], O=C(O)CCCCCN1C(=O)C(O)=C(C(=O)/C=C/c2ccccc2)C1c1ccc2c(c1)OCO2 (stereo not given) 27.8% [activator], Cc1cc(OCCNCCO)cc(C)c1Cl 13% [activator], Cn1cnc2c1c(=O)n(Cc1ccccc1)c(=O)n2C -15.1% [inhibitor], COc1ccc(CN2CCN(CCC(C)C)C(CCO)C2)cc1Cn1cccn1 (stereo not given) 16.9% [activator], CCN(CC)C(=O)c1ccccc1NC(=O)c1cccc(S(=O)(=O)N(CC)CC)c1 -16.2% [inhibitor], CCOC(=O)C1=C(c2ccccc2)N=c2s/c(=C\c3ccc(O)cc3)c(=O)n2C1c1cccs1 (stereo not given) -16.2% [inhibitor], CC1(NC(=O)C2CCCCC2)CCS(=O)(=O)C1 (stereo not given) 19.6% [activator], COc1cc(/C=C2/C(=O)NN(c3cccc(C)c3)C2=O)cc([N+](=O)[O-])c1O 14.7% [activator], CCCCNC(=O)CSc1nc2cc(OC)c(OC)cc2c(=O)n1Cc1ccc(OC)cc1 17.3% [activator], CN1CCN(c2ccc(-c3ccc4ccccc4n3)cc2)CC1 -16.3% [inhibitor], CCC(CC)NCc1ccc2c(c1)c1ccccc1n2CC -15.9% [inhibitor], COc1ccc(CC(=O)NCC2COc3ccccc3O2)cc1 (stereo not given) 19.9% [activator]
